This is an account of results in the supplement of paper PMC10600219.

Counter-ions that a name gives are not always drawn. The full ranking holds about 2,800 compounds; the median of “cell viability relative to vehicle” is about 0.98, and the lowest 2% start at about 0.45. Some of the results follow.

The test system of the experiment is NCI-H2228 alectinib-DTP. Briefly: cell viability relative to vehicle (fraction of vehicle); NCI-H2228 is an ALK-positive lung cancer line and DTP means drug-tolerant persister; higher = less growth inhibition. To be noted: 100 nM; treatment time 6 days. A digest of the protocol:
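Values give cell viability as a fraction of vehicle-treated cells. Parental and drug-tolerant persister NCI-H2228 cells (persisters made with 1000 nM of a targeted drug for 13 days) were exposed in 384-well plates to the 3114-agent TargetMol anti-cancer compound library at 100 nM, with DMSO as vehicle. ATP was then read after 6 days by the CellTiter-Glo 3D Cell Viability Assay.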
Take `COc1ccc2c(c1OC)CN1CCc3cc4c(cc3C1C2)OCO4` (stereo not given) [Tetrahydroberberine THB]: the cell viability was found to be 1.01.

Regarding `O=C(O)CNC(=O)C1C(=O)N(C2CCCCC2)C(=O)N(C2CCCCC2)C1=O` [Daprodustat], the cell viability stood at 0.908. The result for `Oc1cc(O)cc(/C=C/c2c(O)cccc2O)c1` [Gnetol] reads 0.91; that for `CC(=O)O[C@H]1CC[C@@]2(C)C(=CC[C@@H]3[C@@H]2CC[C@]2(C)C(=O)CC[C@@H]32)C1` [Dehydroepiandrosterone acetate], 0.856; that for `CC(C)OC(=O)[C@H](C)N[P@](=O)(CO[C@H](C)Cn1cnc2c(N)ncnc21)Oc1ccccc1` [Tenofovir alafenamide], 0.829. Compound `COc1cc([C@@H]2c3cc4c(cc3[C@H](O)[C@H]3COC(=O)[C@H]23)OCO4)cc(OC)c1O` [4'-Demethylpodophyllotoxin] yielded a cell viability of 1.1. With `CN1C[C@H](CNC(=O)OCc2ccccc2)C[C@@H]2c3cccc4c3c(cn4C)C[C@H]21` [Metergoline] the figure was 1.07; with `C[C@H](CS(C)(=O)=O)n1ccc2c(C(F)(F)F)c(C#N)ccc21`, 1.09; with `CC(C)c1cccc(C(C)C)c1O` [Propofol], 1.08. The result for `COc1c(C)c(O)cc2[o+]c(-c3ccccc3)ccc12.[O-][Cl+3]([O-])([O-])[O-]` [Dracorhodin perochlorate] reads 1.25. The result for `C=C1C2CC3(C1O)C1CC4C5(C)CCC(O)C4(C1N(CC)C5)C3CC2=O` (stereo not given) [Napellonine] reads 0.931; that for `Oc1cc(O)cc(/C=C/c2ccc(O)cc2O)c1` [Oxyresveratrol], 0.952.

Compound `C=C1C[C@@H]2[C@H](CC[C@]3(C)C(=O)CC[C@@H]23)[C@@]2(C)C=CC(=O)C=C12` [Exemestane] returned a cell viability of 0.791. With `O=P1(N(CCCl)CCCl)NCCCO1` (stereo not given) [Cyclophosphamide monohydrate] the figure was 1.27; with `Cn1c(CCCCCCC(=O)NO)nc2cc(N(CCCl)CCCl)ccc21` [Minomustine], 0.926; with `CCCCCc1cc(O)cc(O)c1` [Olivetol], 0.931. For `CN1CCN(c2cccc3[nH]c(=O)oc23)CC1` [Pardoprunox hydrochloride], the cell viability came out at 0.925. With `COP(=S)(OC)Oc1ccc(Sc2ccc(OP(=S)(OC)OC)cc2)cc1` [Temephos] the figure was 1.18; with `C[C@@]1(C(=O)O)CC[C@]2(C)CC[C@]3(C)C4=CC(=O)c5c(cc(O)c(O)c5C=O)[C@]4(C)CC[C@@]3(C)[C@@H]2C1` [Demethylzeylasteral], 0.869. The result for `COc1ccc(/C=C2\CCCN=C2c2cccnc2)c(OC)c1` [GTS 21 dihydrochloride] reads 0.871; that for `COc1ccc(OC)c(C(O)C(C)N)c1` (stereo not given) [Methoxamine hydrochloride], 1.19; that for `Cn1c(COP(=O)(NCCBr)NCCBr)cnc1[N+](=O)[O-]` [Evofosfamide], 1.07.

For `C[C@@H]1CC[C@]2(NC1)O[C@H]1C[C@H]3[C@@H]4CC=C5C[C@@H](O)CC[C@]5(C)[C@H]4CC[C@]3(C)[C@H]1[C@@H]2C` [Solasodine], the cell viability is 0.97. The result for `CN1CCC(C(=O)c2cccc(NC(=O)c3c(F)cc(F)cc3F)n2)CC1` [Lasmiditan] reads 0.914; that for `Cc1sc2c(c1C)C(c1ccc(Cl)cc1)=N[C@@H](CC(=O)OC(C)(C)C)c1nnc(C)n1-2`, 0.83; that for `Cc1c(N[C@@H](c2nnc(-c3ccc(C#N)cc3)o2)[C@H](C)O)ccc(C#N)c1Cl` [Testolone], 1.21. In the case of `C[N+]1(C)CCCC(OC(=O)C(O)(c2ccccc2)c2ccccc2)C1` (stereo not given) [Mepenzolate Bromide], the cell viability was 0.886. With `COc1cc(OC)c(OC)cc1C=O` [Asarylaldehyde] the figure was 1.18. The result for `OC(c1ccccc1)(c1ccccc1)C1CCNCC1` [Ataractan] reads 1.04; that for `C/C(O)=C(\C#N)C(=O)Nc1cc(Br)ccc1Br`, 0.99. The result for `OC1C[C@H]2CC[C@@H](C1)N2` (stereo not given in full) [Nortropine] reads 0.974. Take `COc1cc([C@@H]2c3cc4c(cc3[C@@H](O)[C@H]3COC(=O)[C@H]23)OCO4)cc(OC)c1O` [4'-Demethylepipodophyllotoxin]: the cell viability came out at 0.904. With `Cc1ccccc1-n1c(Cn2ncc3c(N)ncnc32)nc2cccc(C)c2c1=O` the figure was 0.957. With `CCC1(C)CC(=O)NC(=O)C1` [Bemegrid] the figure was 0.835. With `CN(C)C(=O)Oc1ccc[n+](C)c1` [Mestinon] the figure was 1.05; with `CC1=C2C[C@H]3[C@@H](CC=C4C[C@@H](O)CC[C@@]43C)[C@@H]2CC[C@]12O[C@@H]1C[C@H](C)CN[C@H]1[C@H]2C` [Cyclopamine], 0.999. `CC(C)NCC(O)c1ccccc1Cl` (stereo not given) [Clorprenaline hydrochloride] yielded a cell viability of 0.96. With `O=c1[nH]c2ccccc2n1C1CCN(CCCC(c2ccc(F)cc2)c2ccc(F)cc2)CC1` [Pimozide] the figure was 0.913; with `C[C@@H]1C(=O)O[C@H]2[C@H](O)[C@@]34O[C@@H]5OC(=O)[C@H](O)[C@@]56[C@H](C(C)(C)C)[C@H](O)C(OC3=O)[C@]64[C@@]12O` (stereo not given in full) [Ginkgolide C], 0.969; with `CN[C@@H](Cc1c[nH]c2ccccc12)C(=O)O` [Abrine], 1.07. The result for `CCCCCCCCC(=O)NCc1ccc(O)c(OC)c1` [Nonivamide] reads 0.973. With `c1ccc2c(c1)[nH]c1cnccc12` [Norharmane] the figure was 0.986.

`N#CC(C#N)=Cc1ccc([N+](=O)[O-])c(O)c1` showed a cell viability of 1.05. `NCCCNCCSP(=O)(O)O` [Amifostine]: the cell viability was found to be 0.91. With `COC1=C[C@]23CCCN2CCc2cc4c(cc2[C@@H]3[C@@H]1O)OCO4` [Cephalotaxine] the figure was 0.873; with `C[C@]12CCC(=O)C(O)=C1CC[C@@H]1[C@@H]2CC[C@]2(C)C(=O)CC[C@@H]12` [Formestane], 1.08. `CNCC(O)c1ccc(O)cc1` (stereo not given) [Synephrine]: the cell viability was found to be 0.917. The result for `CNCC(O)c1ccc(O)cc1` (stereo not given) [Synephrine HCl] reads 1.17. The result for `CCC1=C[C@H]2CN3CCc4c([nH]c5ccccc45)[C@](C(=O)OC)(C2)[C@H]13` [Catharanthine] reads 1.18; that for `CN1[C@@H]2CC[C@H]1C[C@@H](OC(=O)C(CO)c1ccccc1)C2` (stereo not given in full) [Atropine], 1.27. Regarding `CCOc1ccccc1-n1c(C(C)N2CCN(C(=O)COc3ccc(Cl)cc3)CC2)nc2ccccc2c1=O` (stereo not given) [Erastin], the cell viability came to 1.07. With `COc1ccc2[nH]cc(C3=CCNCC3)c2c1` the figure was 0.966. The result for `Cc1sc2c(c1C)C(c1ccc(Cl)cc1)=N[C@@H](CC(=O)Nc1ccc(O)cc1)c1nnc(C)n1-2` [Birabresib] reads 0.907; that for `COc1ccc(C(CN(C)C)C2(O)CCCCC2)cc1` (stereo not given) [Venlafaxine hydrochloride], 0.995. The result for `CCN(CC)CCOC(=O)C(O)(c1ccccc1)c1ccccc1` [Benactyzine hydrochloride] reads 0.883; that for `CNC(=O)Oc1ccc2c(c1)[C@]1(C)CCN(C)[C@@H]1N2C` [Physostigmine Salicylate], 1.07; that for `Nc1ncnc2c1ccn2[C@@H]1O[C@H](CO)[C@@H](O)[C@H]1O` [Tubercidin], 0.389. `CN(C)C(=O)Oc1cccc([N+](C)(C)C)c1` [Neostigmine bromide] yielded a cell viability of 0.769.

`CN(C)C(=O)Oc1cccc([N+](C)(C)C)c1` [Hodostin] displayed a cell viability of 0.784. The result for `CN1[C@H]2C[C@H](OC(=O)[C@H](CO)c3ccccc3)C[C@@H]1[C@@H](O)C2` [Anisodamine] reads 0.945.
